According to paper PMC10849602:
Numbering of substitutions follows the chain as printed. In names and notes the source's numbering stands. These are yes or no findings as the source states them, for the method shown. Binding seen in cells or lysates may run through a third protein. Some entries that bind do so weakly or less than the wild type. Values belong to the binder of their own block, whether it stands above or below them.

Protein sequences, listed by entry. Tags and fused reporters are not part of them.
UniProt P35710: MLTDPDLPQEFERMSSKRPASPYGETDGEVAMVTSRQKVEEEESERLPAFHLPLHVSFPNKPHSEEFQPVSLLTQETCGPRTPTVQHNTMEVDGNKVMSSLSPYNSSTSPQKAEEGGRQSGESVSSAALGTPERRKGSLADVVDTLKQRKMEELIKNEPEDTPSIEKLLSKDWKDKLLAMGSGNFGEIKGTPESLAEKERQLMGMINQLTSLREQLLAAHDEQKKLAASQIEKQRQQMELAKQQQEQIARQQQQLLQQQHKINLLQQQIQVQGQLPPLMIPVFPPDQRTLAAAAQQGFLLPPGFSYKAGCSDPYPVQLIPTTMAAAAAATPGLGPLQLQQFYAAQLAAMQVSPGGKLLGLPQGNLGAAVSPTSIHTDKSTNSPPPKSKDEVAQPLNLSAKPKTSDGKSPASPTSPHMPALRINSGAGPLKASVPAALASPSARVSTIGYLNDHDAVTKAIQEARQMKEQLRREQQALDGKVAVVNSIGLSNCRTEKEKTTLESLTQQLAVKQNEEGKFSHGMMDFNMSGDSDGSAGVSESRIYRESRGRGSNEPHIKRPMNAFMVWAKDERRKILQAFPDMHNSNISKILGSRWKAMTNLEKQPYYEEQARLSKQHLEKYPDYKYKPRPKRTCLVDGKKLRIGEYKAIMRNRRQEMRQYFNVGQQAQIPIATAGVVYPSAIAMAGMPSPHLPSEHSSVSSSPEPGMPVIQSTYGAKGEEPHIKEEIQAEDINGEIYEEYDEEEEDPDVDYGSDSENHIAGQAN
UniProt P40645: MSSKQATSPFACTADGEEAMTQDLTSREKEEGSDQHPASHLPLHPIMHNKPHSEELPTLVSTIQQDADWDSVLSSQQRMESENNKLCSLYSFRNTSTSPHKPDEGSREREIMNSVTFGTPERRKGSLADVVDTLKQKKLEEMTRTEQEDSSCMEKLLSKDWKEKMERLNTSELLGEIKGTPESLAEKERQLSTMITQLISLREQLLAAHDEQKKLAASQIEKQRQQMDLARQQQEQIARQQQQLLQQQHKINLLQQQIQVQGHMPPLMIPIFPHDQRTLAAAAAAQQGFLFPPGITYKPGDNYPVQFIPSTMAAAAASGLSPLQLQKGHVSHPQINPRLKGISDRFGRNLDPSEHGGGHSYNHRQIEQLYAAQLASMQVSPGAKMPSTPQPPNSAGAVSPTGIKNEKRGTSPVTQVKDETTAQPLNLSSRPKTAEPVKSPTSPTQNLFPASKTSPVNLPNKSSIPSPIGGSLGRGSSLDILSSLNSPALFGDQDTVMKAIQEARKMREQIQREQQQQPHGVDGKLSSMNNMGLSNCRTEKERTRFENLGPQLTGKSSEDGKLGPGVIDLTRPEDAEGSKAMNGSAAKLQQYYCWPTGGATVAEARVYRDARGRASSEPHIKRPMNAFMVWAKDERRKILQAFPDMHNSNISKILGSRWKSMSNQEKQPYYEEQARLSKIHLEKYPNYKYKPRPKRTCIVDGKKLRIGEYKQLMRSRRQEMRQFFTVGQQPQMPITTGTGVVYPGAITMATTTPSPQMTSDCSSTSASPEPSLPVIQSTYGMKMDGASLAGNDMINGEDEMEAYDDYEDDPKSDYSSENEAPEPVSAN
UniProt Q04888: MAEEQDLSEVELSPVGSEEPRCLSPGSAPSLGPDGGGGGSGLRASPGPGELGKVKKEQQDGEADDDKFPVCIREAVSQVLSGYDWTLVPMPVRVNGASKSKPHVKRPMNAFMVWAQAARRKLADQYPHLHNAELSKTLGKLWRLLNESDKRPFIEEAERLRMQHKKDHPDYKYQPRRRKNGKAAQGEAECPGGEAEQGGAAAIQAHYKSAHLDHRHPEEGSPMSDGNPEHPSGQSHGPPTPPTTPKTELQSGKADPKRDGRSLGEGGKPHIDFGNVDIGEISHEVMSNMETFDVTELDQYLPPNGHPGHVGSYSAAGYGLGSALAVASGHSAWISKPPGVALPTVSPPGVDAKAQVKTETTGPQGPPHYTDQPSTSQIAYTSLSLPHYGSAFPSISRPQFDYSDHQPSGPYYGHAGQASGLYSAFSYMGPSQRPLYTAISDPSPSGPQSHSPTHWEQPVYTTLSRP

Assays:
[1] = target: T1, Nkx2-2, expressed in HEK293 cells (UniProt P42586); assay: co-IP; RNF220 coexpressed with each transcription factor in HEK293 cells; which partner was precipitated is not given
T1 sequence: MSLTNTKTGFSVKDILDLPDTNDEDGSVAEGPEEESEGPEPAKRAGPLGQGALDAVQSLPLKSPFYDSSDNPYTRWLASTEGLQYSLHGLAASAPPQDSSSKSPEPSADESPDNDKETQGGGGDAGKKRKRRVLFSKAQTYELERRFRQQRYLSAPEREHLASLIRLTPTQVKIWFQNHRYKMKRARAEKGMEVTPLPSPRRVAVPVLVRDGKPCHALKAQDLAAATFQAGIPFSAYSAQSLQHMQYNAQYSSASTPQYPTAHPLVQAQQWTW

[2] = target: T2, Id2, expressed in HEK293 cells (UniProt P41136); assay: as above
T2 sequence: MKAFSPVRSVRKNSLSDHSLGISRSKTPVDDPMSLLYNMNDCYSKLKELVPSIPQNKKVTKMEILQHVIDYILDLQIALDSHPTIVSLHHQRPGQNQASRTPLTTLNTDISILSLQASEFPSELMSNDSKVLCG

[3] = target: T3, Olig1, expressed in HEK293 cells (mouse) (UniProt Q9JKN5); assay: as above
T3 sequence: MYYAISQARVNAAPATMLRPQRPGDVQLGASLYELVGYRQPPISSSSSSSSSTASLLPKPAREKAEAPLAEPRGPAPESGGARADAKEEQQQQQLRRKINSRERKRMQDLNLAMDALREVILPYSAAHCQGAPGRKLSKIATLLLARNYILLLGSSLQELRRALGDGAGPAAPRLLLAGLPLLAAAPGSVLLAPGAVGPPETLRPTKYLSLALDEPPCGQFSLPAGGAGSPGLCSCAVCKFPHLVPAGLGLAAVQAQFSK

[4] = target: T4, Ascl1, expressed in HEK293 cells (UniProt Q02067); assay: as above
T4 sequence: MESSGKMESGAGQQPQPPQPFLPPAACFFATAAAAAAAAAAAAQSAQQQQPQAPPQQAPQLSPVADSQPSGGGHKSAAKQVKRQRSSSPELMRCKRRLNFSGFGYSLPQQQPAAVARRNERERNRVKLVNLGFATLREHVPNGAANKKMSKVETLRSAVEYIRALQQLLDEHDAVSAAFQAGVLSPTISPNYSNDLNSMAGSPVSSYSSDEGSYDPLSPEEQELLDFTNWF

[5] = target: Sox5, expressed in HEK293 cells (UniProt P35710); assay: as above
[6] = target: T5, Id4, expressed in HEK293 cells (UniProt P41139); assay: as above
T5 sequence: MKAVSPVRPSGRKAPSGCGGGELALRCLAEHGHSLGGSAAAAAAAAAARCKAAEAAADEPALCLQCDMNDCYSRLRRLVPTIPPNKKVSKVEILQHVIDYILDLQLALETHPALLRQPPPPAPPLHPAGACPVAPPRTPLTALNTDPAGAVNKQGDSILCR

[7] = target: T6, Hes5, expressed in HEK293 cells (UniProt P70120); assay: as above
T6 sequence: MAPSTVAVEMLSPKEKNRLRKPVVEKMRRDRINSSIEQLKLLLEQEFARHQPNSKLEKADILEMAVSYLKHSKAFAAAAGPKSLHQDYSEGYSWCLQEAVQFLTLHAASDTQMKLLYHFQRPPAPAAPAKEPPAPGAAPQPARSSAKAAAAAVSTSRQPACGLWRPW

[8] = target: T7, Olig2, expressed in HEK293 cells (mouse) (UniProt Q9EQW6); assay: as above
T7 sequence: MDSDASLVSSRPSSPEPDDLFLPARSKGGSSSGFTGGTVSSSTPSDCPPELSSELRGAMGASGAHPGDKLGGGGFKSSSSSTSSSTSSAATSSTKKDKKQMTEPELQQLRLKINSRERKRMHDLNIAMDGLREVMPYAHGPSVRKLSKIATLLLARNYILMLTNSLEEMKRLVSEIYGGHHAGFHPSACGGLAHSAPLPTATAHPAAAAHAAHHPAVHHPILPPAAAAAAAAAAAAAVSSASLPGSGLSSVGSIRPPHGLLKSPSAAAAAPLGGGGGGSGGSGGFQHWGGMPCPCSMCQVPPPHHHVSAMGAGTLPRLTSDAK

[9] = target: Sox6, expressed in HEK293 cells (UniProt P40645); assay: as above
[10] = target: Sox10, expressed in HEK293 cells (UniProt Q04888); assay: as above
[11] = target: T8, endogenous Olig2 of mouse forebrain (mouse (endogenous in forebrain)) (UniProt Q9EQW6); assay: co-IP; endogenous proteins in forebrain lysates of P7 mice, with the indicated antibodies, IgG as control
T8 sequence: T7 sequence

[12] = target: T9, endogenous Olig1 of mouse forebrain (mouse (endogenous in forebrain)) (UniProt Q9JKN5); assay: as above
T9 sequence: T3 sequence

[13] = target: T3, Olig1, expressed in HEK293 cells (mouse); assay: co-IP; WT RNF220 or the mutants R363Q and R365Q with Olig1 or Olig2; cells not stated for this panel
[14] = target: T7, Olig2, expressed in HEK293 cells (mouse); assay: as above
[15] = target: T10, RNF220 (RING finger protein 220), wild type, expressed in HEK293 cells (UniProt Q6PDX6); assay: co-IP; reverse in vitro co-IP of RNF220 and the Olig proteins (the other partner precipitated than in a1)
T10 sequence: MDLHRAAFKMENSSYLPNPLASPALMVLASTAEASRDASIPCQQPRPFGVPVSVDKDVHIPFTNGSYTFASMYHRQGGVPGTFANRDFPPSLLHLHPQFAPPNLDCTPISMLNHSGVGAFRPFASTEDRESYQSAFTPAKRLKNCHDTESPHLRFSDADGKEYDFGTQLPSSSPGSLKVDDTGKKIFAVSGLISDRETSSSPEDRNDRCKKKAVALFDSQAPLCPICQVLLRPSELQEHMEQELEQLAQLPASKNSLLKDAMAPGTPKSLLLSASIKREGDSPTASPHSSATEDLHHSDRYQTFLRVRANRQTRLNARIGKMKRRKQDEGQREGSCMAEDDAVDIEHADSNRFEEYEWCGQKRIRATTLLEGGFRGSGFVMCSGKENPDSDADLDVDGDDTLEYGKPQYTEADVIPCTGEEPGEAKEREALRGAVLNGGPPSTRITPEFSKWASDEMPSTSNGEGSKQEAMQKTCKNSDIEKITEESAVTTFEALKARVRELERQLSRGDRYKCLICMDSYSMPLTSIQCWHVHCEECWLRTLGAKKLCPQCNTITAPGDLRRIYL

B1: RNF220 (RING finger protein 220), wild type, expressed in HEK293 cells (enzyme, UniProt Q6PDX6 1-566)
chain: T10 sequence
- binding [1]: no binding
- binding [2]: no binding
- binding [3]: binds
- binding [4]: binds
- binding [5]: no binding
- binding [6]: no binding
- binding [7]: no binding
- binding [8]: binds
- binding [9]: no binding
- binding [10]: no binding

B3: RNF220^R363Q, leukodystrophy-related missense mutant (enzyme, UniProt Q6PDX6 1-566)
chain: T10 sequence with R363Q
- binding [13]: binds
- binding [14]: binds

B5: Olig1, expressed in HEK293 cells (protein, UniProt Q9JKN5 1-260)
chain: T3 sequence
- binding [15]: binds

The next lines start with the values.

- binding [11]: binds
- binding [12]: binds
B2: endogenous RNF220 of mouse forebrain (enzyme, UniProt Q6PDX6 1-566)
chain: T10 sequence

- binding [13]: binds
- binding [14]: binds
B4: RNF220^R365Q, leukodystrophy-related missense mutant (enzyme, UniProt Q6PDX6 1-566)
chain: T10 sequence with R365Q
